# Measured values reported in PubChem BioAssay AID2546 (National Center for Advancing Translational Sciences (NCATS), 2010).
# The whole screen tested about 310,000 compounds, of which about 11,000 (3.5%) were called active. Inconclusive means that the source gave no clear call. Such entries were picked first, then a sample of the others. Calls come from the whole dose curve; as a rule, active = well fitted inhibition curve with a large enough effect; inconclusive = small, poorly fitted or top-dose-only effect, or effect the other way; inactive = flat fitted curve, though single readings scatter. Potencies of inconclusive entries are left out as doubtful fits.
# Assay: VP16 counterscreen qHTS for inhibitors of ROR gamma transcriptional activity;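 note: Gal4-VP16 expression switched on by copper sulfate through the metallothionein promoter; nearly all actives have a fitted effect of over 50% in size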
# Details: Drosophila S2 Gal4-VP16 UAS-luciferase, luminescence, 20 h; series mostly up to 53.6 µM
# Potency is the fitted concentration of half-maximal effect; tags give direction and shape of the fitted curve.
row,SMILES,Potency
1,COc1ccc(C(=O)NC(=S)N2CC(C)OC(C)C2)cc1OC (stereo unspecified),"inconclusive [inhibitor, single point]"
2,COc1cccc(C(=O)Nc2ccc3c(c2)C(=O)c2ccccc2C3=O)c1,"inconclusive [inhibitor, partial curve]"
3,CCOc1ccc(S(=O)(=O)Nc2ccc(O)c(Sc3ncn[nH]3)c2)cc1,active: 3.55 µM
4,CNC(=O)c1nnsc1S(=O)(=O)c1ccc(Cl)cc1,active: 0.398 µM
5,CN(C)S(=O)(=O)c1cccc(NC(=O)c2cc3ccccc3o2)c1,"inconclusive [inhibitor, single point]"
6,CCC(C(=O)c1ccc2ncccc2c1)c1ccccc1 (stereo unspecified),"inconclusive [activator, single point]"
7,O=C(Nc1ccc(OC(F)(F)F)cc1)c1ccc2nc[nH]c2c1,"inconclusive [activator, single point]"
8,COc1ccccc1/C=C/C=N/NC(=O)c1ccco1,"inconclusive [inhibitor, single point]"
9,CCOc1cc(NC(=S)NCC2CCCO2)c(OCC)cc1NC(=O)CC(C)C (stereo unspecified),inactive
10,O=C(/C=C/c1ccc(F)cc1)NC(=S)Nc1ccccc1,active: 10 µM
11,CCOC(=O)N/N=C/c1cn(Cc2ccc(Cl)cc2)c2ccccc12,"inconclusive [inhibitor, single point]"
12,CCCCCn1c(C(C)NC(=O)CCC)nc2ccccc21 (stereo unspecified),inactive
13,COc1cccc(Nc2nc3ccc(C(=O)c4ccccc4)cc3n3cnnc23)c1,inactive
14,Cc1c(C(=O)Nc2ccncc2)sc2nc(-c3ccc(F)cc3)cn12,"inconclusive [inhibitor, single point]"
15,COC(=O)/C(=N\Nc1ccc(Cl)cc1)Sc1nnc(-c2ccc(OC)cc2)n1C,"inconclusive [inhibitor, single point]"
16,COc1cc(C(=O)Nc2cc(-c3nc4cc(C)ccc4o3)ccc2C)cc(OC)c1OC,"inconclusive [inhibitor, single point]"
17,CC1(C)CC(C(CCN(Cc2ccccc2)C(=O)c2ccco2)c2ccc(F)cc2)CCO1 (stereo unspecified),"inconclusive [inhibitor, single point]"
18,COc1ccc(C2CC(c3ccc(F)cc3)Nc3nc(N)nn32)cc1OC (stereo unspecified),"inconclusive [inhibitor, single point]"
19,Cc1c(C(=O)Nc2ccc(S(=O)(=O)Nc3ncccn3)cc2)oc2ccc(F)cc12,inactive
20,CCOC(=O)c1nnn(-c2nonc2N)c1CN1CCc2ccccc2C1,inactive
21,COC(=O)c1ccc(C(=O)OC)c(NC(=S)N2CCCCC2C)c1 (stereo unspecified),"inconclusive [inhibitor, single point]"
22,O=C(CSc1nnc(-c2cc3ccccc3cc2O)n1Cc1ccco1)c1ccc(F)cc1,active: 14.1 µM
23,Cc1ccc(/C=N/NC(=O)c2cccc3ccccc23)o1,"inconclusive [inhibitor, single point]"
24,C#CC(=O)N(c1ccc(OC)c(OC)c1)C(C(=O)NC1CCCC1)c1cccs1 (stereo unspecified),active: 8.91 µM

row,SMILES,Potency
1,Cc1ccc(Cn2ccc(NC(=O)c3cc(-c4cccc(Cl)c4)on3)n2)cc1,"inconclusive [inhibitor, single point]"
2,CC(=O)N1CCc2cc(S(=O)(=O)NCCC(=O)NCCc3ccc(Cl)cc3)ccc21,"inconclusive [inhibitor, single point]"
3,COc1ccc(C(=O)C(/C=N/O)=N/Nc2ccc(F)cc2)cc1,"inconclusive [inhibitor, single point]"
4,CCc1c(C)[nH]c2ccccc2c1=O,"inconclusive [inhibitor, single point]"
5,COc1ccc(-c2cc(C#N)nc(N3CCN(C)CC3)n2)cc1,"inconclusive [inhibitor, single point]"
6,CCOc1ccc(NCc2cccn2-c2nnc(N3CCC(C(=O)NCCCN4CCCCC4)CC3)s2)cc1,"inconclusive [inhibitor, single point]"
7,Cc1c(C=O)c2ccccc2n1CCOc1ccccc1F,"inconclusive [inhibitor, single point]"
8,COc1ccc(Cc2nc3ccccc3[nH]2)cc1OC,"inconclusive [inhibitor, single point]"
9,O=C(COC(=O)C1(c2ccc(Cl)cc2)CCCC1)Nc1ncc(C(F)(F)F)cc1Cl,"inconclusive [inhibitor, single point]"
10,Cc1n[nH]c(=S)n1-c1ccc(Cl)cc1,inactive
11,CCOC(=O)c1c(S(=O)(=O)Nc2ccc(C)cn2)c(C)n(C)c1C,inactive
12,CC(=O)N(Cc1ccc(F)cc1)C1=C(NCCc2ccccc2)C(=O)c2ccccc2C1=O,"inconclusive [inhibitor, single point]"
13,Cc1ccc(SC[C@H](Cc2ccccc2)N2CC[C@@H](NC(=O)OCc3ccccc3)CCC2=O)cc1,inactive
14,Nc1nccc(-c2cccs2)n1,"inconclusive [activator, single point]"
15,O=C(NCc1ccccc1)C1CC2CCCC(C1)C2=O (stereo unspecified),"inconclusive [inhibitor, single point]"
16,Nc1cc(=O)[nH]c(SCc2ccc(Cl)cc2Cl)n1,"inconclusive [inhibitor, single point]"
17,Nc1ccc2oc(-c3ccc4nc[nH]c4c3)nc2c1,"inconclusive [inhibitor, partial curve]"
18,c1ccc(-c2cn3nc(-c4ccccc4)c(-c4ccccc4)nc3n2)cc1,inactive
19,CC(C)c1ccc(NC(=O)NC2CCN(CC(=O)Nc3cccc4ccccc34)CC2)cc1,"inconclusive [inhibitor, partial curve]"
20,CCN(CC)CCCNC(=O)c1cc(-c2ccc(Cl)cc2)on1,inactive
21,Cc1ccc(-c2nc3nc4ccccc4nc3n2Cc2ccco2)cc1,"inconclusive [inhibitor, single point]"
22,O=C(/C=C/c1ccccc1)Nc1cccc(S(=O)(=O)Nc2ccccc2F)c1,"inconclusive [inhibitor, single point]"
23,CCOc1cc2[nH]c(=S)n(C3CC3)c(=O)c2cc1OCC,active: 15.8 µM
24,Cc1ccc(-n2ncc3c(=O)n(CC(=O)NCc4ccco4)cnc32)cc1,inactive

row,SMILES,Potency
1,O=C(COC(=O)CCN1C(=O)/C(=C\C=C\c2ccccc2)SC1=S)Nc1ccc(Br)cc1,"inconclusive [inhibitor, single point]"
2,O=[N+]([O-])c1ccc(NCCCN2CCOCC2)c([N+](=O)[O-])c1,inactive
3,Cc1ccccc1OCc1n[nH]c(=S)n1-c1ccccc1,active: 8.91 µM
4,CC(C)CC(COCc1cccc(Cl)c1)N1CCN(C(=O)c2ccc(C(F)(F)F)cc2)CCC1=O (stereo unspecified),"inconclusive [inhibitor, single point]"
5,O=C(CNc1cccc(S(=O)(=O)N2CCOCC2)c1)Nc1ccccc1F,"inconclusive [activator, single point]"
6,Nc1c(C(=O)N2CCCC2)sc2nc3c(cc12)CCCCCC3,"inconclusive [activator, single point]"
7,CCC[N+](CC#Cc1ccccc1)(CCC)CC(=O)c1ccc(Cl)cc1,"inconclusive [activator, single point]"
8,CCOc1ccc(/C(CCC(=O)O)=N/NC(=S)NC(C)C)cc1,"inconclusive [inhibitor, single point]"
9,COc1ccc(N2CCN(c3ncnc4c3[nH]c3ccccc34)CC2)cc1,active: 7.08 µM
10,O=C1CC(C(=O)Nc2ccc(F)cc2)S/C(=N\N=C\c2ccco2)N1 (stereo unspecified),"inconclusive [inhibitor, single point]"
11,CCOC(=O)N1CCN(C(=O)c2cc(-c3ccc(OCC)cc3)nc3ccccc23)CC1,"inconclusive [inhibitor, single point]"
12,CN(C)c1ccc(NC(=O)CSc2nnc(-c3ccco3)c(-c3ccco3)n2)cc1,inactive
13,O=C(/C=C/c1ccccc1)c1c[nH]c2ccccc12,"inconclusive [inhibitor, partial curve, poor fit]"
14,O=C(Nc1cccc(F)c1)N(Cc1ccc(Cl)cc1)CC(O)C(F)(F)F (stereo unspecified),"inconclusive [inhibitor, single point]"
15,Cc1ccc(-c2nnnn2C2C/C(=N\NC(N)=S)C3OCC2O3)cc1 (stereo unspecified),"inconclusive [inhibitor, single point]"
16,CCCC[n+]1ccn(-c2nc3ccccc3nc2[N-]S(=O)(=O)c2ccc(Cl)cc2)c1,inactive
17,Fc1ccc(NC(=S)NCCc2ccccn2)cc1,"inconclusive [inhibitor, single point]"
18,COc1ccc(C(CC(=O)c2ccc(C)cc2)C(C#N)C#N)cc1OC (stereo unspecified),"inconclusive [inhibitor, single point]"
19,O=C(/C=C/c1ccc(F)cc1)NC(=S)NNC(=O)c1cccnc1,active: 10 µM
20,O=C(N/N=C/c1ccccn1)c1cc(Br)ccc1O,active: 4.47 µM
21,COc1ccc(NS(=O)(=O)c2ccc(NC(=S)NC(=O)/C=C/c3ccccc3)cc2)nn1,"inconclusive [inhibitor, single point]"
22,C=CCSc1n[nH]c2nc3c(c(=O)n12)C1(CCCC1)Cc1ccccc1-3,active: 11.2 µM
23,COC(=O)/C(C#N)=C\c1c(OC)[nH]c2ccccc12,inactive
